Assay results: PubChem BioAssay AID1347073 (National Center for Advancing Translational Sciences (NCATS), 2019)
Screen size: about 45,000 compounds; about 200 (0.44%) were called active. Inconclusive results (about 7%) are left out. Calls follow the shape of the dose curve; as a rule, active = well fitted activation curve with a large enough effect; inconclusive = small, poorly fitted or top-dose-only effect; inactive = no such curve, though single readings can be large or run the other way. The list shows a part of the results.

Experiment: qHTS of TDP-43 Inhibitors: NCGC Sytravon Library Screen; also: 0% is about no effect; nearly all actives have a fitted effect of over 55% in size
Conditions: yeast TDP-43 toxicity rescue, BacTiter-Glo growth, 24 h; series mostly up to 46.1 µM; growth rescue (activation): at the top concentration
In short: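 TDP-43-expressing yeast, pregrown in raffinose, seeded at OD600 0.02 in galactose medium with compound for 24 hr at 30 deg C. Growth read by BacTiter-Glo luminescence, so rescue of toxicity appears as activation.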

SMILES | growth rescue (activation)
COc1ccc(OC)c(NC(=O)COC(=O)CCNc2ccccc2OC)c1 | inactive: 2.86%
CN(C)S(=O)(=O)c1cccc(CSCc2cccc(S(=O)(=O)N(C)C)c2)c1 | inactive: 8.21%
COc1ccc(N(CC(O)Cn2c(C)nc3ccccc32)S(=O)(=O)c2ccc(C)cc2)cc1 (stereo not given) | inactive: 5.56%
CC(C)OP(=O)(OC(C)C)C(NC(=O)c1ccccc1Br)C(N)=O (stereo not given) | inactive: 1.93%
COC(=O)C(CCSC)NC(=O)c1cc2c(n(-c3ccccc3)c1=O)CC(C)(C)CC2=O (stereo not given) | inactive: 0.172%
Cc1c(Cl)cccc1NC(=S)NCC(c1cccnc1)N(C)C (stereo not given) | inactive: -9.1%
O=C(Nc1ccncc1)c1ccc(S(=O)(=O)Nc2ccccc2)cc1 | inactive: 16.3%
Cc1nn(CC(=O)NC2C(=O)N3C(C(=O)O)=C(CSc4nnnn4C)CSC23)cc1Br (stereo not given) | inactive: 0.671%
C/C(N)=C(/C#N)C(=O)CSc1nc2ccccc2c(=O)n1CCCOC(C)C | inactive: 10.2%
O=C(CSc1ncn[nH]1)NCCc1ccc(Cl)cc1 | inactive: -23.4%
Nc1nc2ccc(Cc3ccncc3)cc2s1 | inactive: -2.56%
Cc1ccc(-c2csc(/C(C#N)=C(\O)CN3CCN(C(=O)c4ccco4)CC3)n2)cc1 | inactive: -9.69%
Cc1cccn2c(Nc3ccccc3)c(-c3ccccn3)nc12 | inactive: -8.74%
Cn1c(N)c(C(=O)COC(=O)Cc2ccc(Br)cc2)c(=O)n(C)c1=O | inactive: -3%
OC(CNCc1ccccn1)c1ccccc1 (stereo not given) | inactive: 2.96%
Cc1cccc(OCC(=O)NNC(=O)CCN2CCN(c3ccccc3)CC2)c1C | inactive: -6.85%
Cc1cccc(C(=O)Nc2ccc(C(=O)/C=C/c3cccnc3)cc2)c1 | inactive: 5.45%
O=C(Cn1cnc2ccccc2c1=O)Nc1ccc2c(c1)OCO2 | inactive: -4.64%
COc1ccc(C(=O)N/C(=C\c2ccccc2)C(=O)N2CCOCC2)cc1 | inactive: -16.3%
CCOC(=O)c1c(C)[nH]c(C(=O)NCCc2ccc(OC)c(OC)c2)c1C | inactive: 30.5%
Cc1noc(C(=O)Nc2cc(Cl)ccc2O)c1Cl | inactive: 10.1%
O=C(Nc1ccc([N+](=O)[O-])cc1)c1ccccc1 | inactive: 3.87%
Cc1ccc(S(=O)(=O)NCCC(=O)NNC(=O)COc2ccc(Br)cc2)cc1C | inactive: 16%
CCn1c(=O)cc(OCC(=O)NCCc2cccc(C)c2)c2ccccc21 | inactive: 7.61%
COCCn1c(CCC(=O)O)ccc1-c1cccs1 | inactive: -20.8%
O=C(/C=C/c1ccc(F)cc1)NNC(=O)CCN1CCN(Cc2ccccc2)CC1 | inactive: -7.24%
CCCNC(=O)C1(C)CCN1C(=O)C1(c2ccccc2)CC1 (stereo not given) | inactive: 0.845%
CC(=O)C1=C(C)Nc2ncnn2C1c1ccccc1F (stereo not given) | inactive: 7.22%
Cc1ccc(C(=O)N[C@H](C(=O)OCc2cc(=O)n3c(n2)sc2ccccc23)C(C)C)cc1 | inactive: -1.49%
CCCCN(C(=O)/C=C/c1ccc(OCC(C)C)c(OCC)c1)c1c(N)n(CCC)c(=O)[nH]c1=O | inactive: -9.43%
